According to ChEMBL document CHEMBL4888484, “Replenishing the malaria drug discovery pipeline: Screening and hit evaluation of the MMV Hit Generation Library 1 (HGL1) against asexual blood stage Plasmodium falciparum ,using a nano luciferase reporter read-out” (2022):
Hit rate of the full screen: of about 150,000 compounds, about 540 (0.36%) showed an effect of 50% or more. Some of the results follow.

Each molecule was assayed on Plasmodium falciparum (assay: Primary screen in NF54 nanoGlo assay, in single point, at 2uM, 72h; a lower Z score goes with more inhibition). Settings: timepoint 72 hour.
Format: functional, Erythrocyte

| SMILES | % Inhibition | Z score |
| --- | --- | --- |
| CN(Cc1ccccc1F)C(=O)[C@H]1CC(=O)N(C)[C@@H]1c1cccnc1 | -8% | 1.52 |
| OC(COCc1cccs1)CN1CCCC1c1ccc[nH]1 (centres undefined) | 5% | -0.64 |
| Cc1ccnc(-c2n[nH]c(C(C)NC(C)C3CC(F)(F)C3)n2)c1 (centres undefined) | 25% | -2.88 |
| CCCNC(=O)N1CCC(c2noc(COc3ccc(C)cc3)n2)CC1 | -13% | 1.7 |
| CCC1(CC)CCCN(C(=O)CNC(C)=O)CC1 | 5% | -0.7 |
| CC1OC(C)C(C(=O)Nc2nc(C3(C)CC3)ns2)C1C (centres undefined) | -5% | 0.77 |
| CNc1cc(C)nc(N[C@H]2CCN(C(=O)c3ccccn3)C[C@@H]2O)n1 | -26% | 2.29 |
| Cc1nnc(CC(=O)N2CCCC[C@H]2c2cc3ccccc3[nH]2)o1 | -10% | 1.32 |
| Cc1nc(C)c(S(=O)(=O)NC2CCCC2(C)CO)s1 (centres undefined) | -6% | 0.51 |
| CCCc1nn(C)c(C(=O)Nc2ccc(C(=O)c3ccc(F)cc3)cc2)c1Cl | -16% | 2.96 |
| CCOc1ncccc1-c1n[nH]c(C(=O)NC)n1 | 6% | -0.79 |
| COCCN1C(=O)c2ccccc2C(C(=O)Nc2ccc(OC)c(Cl)c2)C1c1cn(S(=O)(=O)c2ccccc2)c2ccccc12 (centres undefined) | 2% | -0.27 |
| Cc1cc(OCCOCCNCCN)cc(C(C)C)c1 | 44% | -2.33 |
| Cc1ccc(C(=O)NCc2cccnc2N2CCOCC2)c(O)c1 | -4% | 0.86 |
| CC(=O)c1c(C(F)(F)C(F)(F)F)n[nH]c1C | -4% | 0.56 |
| CCC(=O)N(CCN1CCOCC1)CC(=O)N1N=C(c2cccn2C)C[C@H]1c1ccccc1 | -10% | 1.72 |
| COC(=O)C1CCN(Cc2cc(Cl)cc3c2OCC3)CC1 | 31% | -3.5 |
| Cc1csc([C@H](C)NS(=O)(=O)N2CCCC2)n1 | -2% | 0.35 |
| c1cn(Cc2csc([C@@H]3CCCO3)n2)nn1 | 0% | 0.03 |
| C[C@@]12CNC[C@]1(C)CN(C(=O)Cc1c(Cl)cccc1Cl)C2 | -5% | 0.76 |
| N#CCCCS(=O)(=O)Cc1csc(C2CC2)n1 | 7% | -0.72 |
| O=C(Nc1nccs1)c1cc2c(s1)CCCCCC2 | -12% | 1.06 |

| SMILES | % Inhibition | Z score |
| --- | --- | --- |
| COCc1ccc(C(=O)Nc2cccnc2-n2cc(Br)cn2)o1 | 1% | -0.11 |
| O=C(NCc1ccc(-c2ncon2)cc1)[C@@H]1CCC[C@H](O)C1 | -2% | 0.44 |
| Cc1noc(C)c1CCC(=O)N1C[C@@H]2CC[C@H]1CN(c1cnccn1)C2 | -1% | 0.11 |
| CCC(C)NS(=O)(=O)c1cc(NC(=O)C(C)CC)ccc1Oc1c(C)c(C(=O)O)nn1CC (centres undefined) | -11% | 1.73 |
| CC1CCCN(CC(C)NC(=O)c2cc3n(n2)CCOC3)C1 (centres undefined) | -3% | 0.45 |
| COc1ccc(C[C@H](C)CN(C)C(=O)c2ccc(C#N)cn2)cc1 | -13% | 1.28 |
| C#C[C@@H](NC(=O)NCC(=O)N1CCCC1)C(C)C | -6% | 0.57 |
| CN(C)Cc1cccc(CNc2ncncc2C(=O)O)c1 | -14% | 1.78 |
| COc1ccc(-n2c(CN3CCN(C)CC3)n[nH]c2=O)c(C)c1 | 3% | -0.61 |
| CCN1CCN(S(=O)(=O)c2cccc(NC(=O)c3ccc(C)s3)c2)CC1 | -3% | 0.66 |
| O=C(NCCc1ccc(C2CCCCC2)cc1)N1CCn2ncnc2C1 | 7% | -1.09 |
| Cc1nc(C)c(CC(=O)N2CCN(c3ccc(F)cc3)CC2)s1 | 1% | -0.22 |
| COCCCn1ccc(NCc2nc(C)cs2)n1 | 0% | -0.02 |
| CCOC(=O)c1cnc2nc(C)ccc2c1Nc1ccc(F)cc1 | -4% | 0.64 |
| O[C@@H]1CCN(Cc2nc(C3(O)CCN(C4COC4)CC3)cs2)C1 | -3% | 0.33 |
| N#CCCN(CC1CC1)S(=O)(=O)C[C@H]1CCCCO1 | -6% | 1.01 |
| CCCc1nc(C)cc(N(C)Cc2ccnc(C)c2)n1 | -3% | 0.3 |
| Cc1ccc(-c2cc(C(=O)NCC[C@H](C)N3CCOCC3)n[nH]2)s1 | -11% | 2.07 |
| CC1CC(C)(C)CC(CO)(NC(=O)Cc2cccnc2)C1 (centres undefined) | -1% | 0.06 |
| COC[C@@H]1Nc2ncnc(Nc3cccc(Br)c3)c2NC1=O | -2% | 0.33 |
| Cn1cncc1C(=O)NCCN1CC=C(C(C)(C)C)CC1 | 1% | -0.2 |
| CC(C)(C)C(=O)Nc1ccncc1C(=O)N1CCC[C@H](C(=O)Nc2ccc(Cl)cn2)C1 | 5% | -0.75 |

| SMILES | % Inhibition | Z score |
| --- | --- | --- |
| CCS(=O)(=O)N[C@@H](C)c1cccc(C)n1 | 8% | -1.03 |
| O=C1c2ccccc2-c2c(-c3ccccc3)sc(=O)n21 | -5% | 0.64 |
| O=C(O)[C@H](Cc1ccccc1)N(C(=O)c1ccncc1)C1CC1 | 37% | -5 |
| COc1cc(CNn2cnnc2)cc(Cl)c1OCc1ccccc1 | -17% | 1.99 |
| COC(=O)[C@H]1CCCN1C(=O)Nc1cccc(Oc2c(F)c(F)c(F)c(F)c2F)c1 | -7% | 0.72 |
| C[C@@H](c1ccccc1)N(C)C(=O)[C@H]1CC[C@H](C(=O)O)CC1 | 9% | -1.18 |
| O=C(NCC(F)(F)F)N1CCC[C@H](O)C1 | -10% | 1.2 |
| CC(C)n1cncc1CN1CCN(c2ncccn2)CC1 | 1% | -0.15 |
| CC1Cc2cc(S(=O)(=O)N3CC(O)Cc4ccccc43)ccc2O1 (centres undefined) | -4% | 0.8 |
| Cc1cc(NC(=O)CCc2cc3n(n2)CCNC3)cc2sc(N)nc12 | -6% | 0.87 |
| CC(C)n1nc(-c2ccncc2)nc1-c1ccncc1 | -10% | 1.33 |
| CCn1ccnc1CN(C)c1cc([C@H]2C[C@H](N)C2)nc(C2CC2)n1 | -4% | 0.74 |
| Cc1ccc(-c2nc(C(=O)NC(C)(CO)CO)cs2)n1C | -5% | 0.55 |
| CCN(Cc1nccn1C)C(=O)c1cc(-c2cncnc2)nc2c(C)c(C)ccc12 | 20% | -2.51 |
| O=C(NCc1ccc2c(c1)OCO2)c1nnc(Cc2ccccc2Cl)o1 | -7% | 1.13 |
| CCn1c(-c2cc(NC(=O)c3ccncc3)[nH]n2)cc2ccc(OC)cc21 | 34% | -3.83 |
| NC(=O)c1ccc(CC(=O)N2CCCCC23CCCCCC3)cn1 | -7% | 0.7 |
| Cn1c(CN2CCC[C@@](CO)(CCc3ccccc3)C2)nc2ccccc21 | -4% | 0.61 |
| Cc1occc1CNC(=O)NCC1CN2CCCC2CO1 (centres undefined) | 0% | 0.05 |
| CO[C@H]1CC[C@@]2(OC)CCN(C(=O)CCn3ccc(=O)[nH]c3=O)[C@H]2C1 | 0% | 0.03 |
| CC(C)c1ccc(C#N)c(N2CC[C@H](N3CCN(C)CC3)[C@H](CCCO)C2)n1 | -1% | 0.13 |
| O=C(N[C@H]1CCS(=O)(=O)C1)c1cc(Cc2ccccc2)ccc1O | -1% | 0.21 |

| SMILES | % Inhibition | Z score |
| --- | --- | --- |
| CCn1nc(CCOC)nc1[C@H](C)Oc1ccc(F)cc1F | 9% | -1.3 |
| CC(C)(C)c1nc(Cn2cnc3ncc(Br)cc32)no1 | 32% | -4.38 |
| O=C(O)CCCN1Cc2cc(Cl)ccc2C[C@H]1c1ccccc1 | -3% | 0.37 |
| CCCn1nnnc1Cn1cc(S(=O)(=O)N(Cc2ccccc2)Cc2ccccc2)ccc1=O | -4% | 0.75 |
| CCc1nn(C)cc1N[C@@H](C)c1ccc(F)c(O)c1 | -7% | 1.4 |
| Cc1ccncc1NCc1c[nH]nc1C(C)(C)C | 27% | -3.59 |
| Cc1nn([C@H]2CCCCC2(C)C)c(=O)c2nc(N)sc12 | 3% | -0.4 |
| Cc1nn(C2CCCC2)c2nc(-c3cccs3)cc(C(=O)O)c12 | -43% | 5.01 |
| CN1C[C@@H](Nc2nc(C3CC3)no2)CCC1=O | -11% | 1.08 |
| COC[C@@H]1CCCN1C(=O)c1ccc2cccc(Cl)c2n1 | -10% | 1.18 |
| CCOC(=O)c1ccc(NC(=O)Cn2nc(COc3ccc(Cl)cc3Cl)oc2=S)cc1 | -30% | 3.52 |
| O=C(C[C@H]1CCS(=O)(=O)C1)NCc1ccc2nsnc2c1 | 0% | -0.02 |
| CC[C@H](C)[C@@H]1NC(=O)N(c2ccccc2F)C1=O | -5% | 0.9 |
| Cc1ccc(CN2CCN(C(=O)c3ccccc3N(C)C)CC2=O)cc1C | -2% | 0.28 |
| C1=CCC2CN(c3cnccn3)CC2C1 (centres undefined) | -8% | 1.03 |
| Cn1nc(-c2ccccn2)cc1NC(=O)N1C[C@@H]2CC[C@H](C1)C(=O)N2 | -5% | 0.89 |
| CCCCS(=O)(=O)N1CCNC(=O)C1 | -1% | 0.08 |
| COCCN1C[C@@H](c2nc(-c3ccc(OC)c(F)c3)c[nH]2)CC1=O | -17% | 2.22 |
| Cc1cc(C(=O)N2CC(n3nccn3)C2)c(C)o1 | 8% | -1.13 |
| COc1cccc(CN2CCc3c(cc(C(=O)Nc4ccc(F)cc4C)n3C)C2)c1 | -2% | 0.22 |
| CCc1ccc(N2C(=O)N(C(=O)c3ccco3)C3CC2(C)Oc2ccccc23)cc1 (centres undefined) | -5% | 0.58 |
